Test results published in a compilation of properties of binary mixtures (doi:10.1016/j.molliq.2022.119209).
Some of these densities may be calculated back from excess volumes.

Experiment: xn = mol fraction of the nth substance listed
Details: 100 kPa

CC(N)C(=O)[O-].CCCC[n+]1ccn(C)c1C + O
mass density [kg/m3]
Details	x1 = 0.1003	x1 = 0.2012	x1 = 0.3009	x1 = 0.4014	x1 = 0.4938	x1 = 0.5975	x1 = 0.6987	x1 = 0.7945	x1 = 0.8965
288.15 K	1066.3	1078	1083.5	1086	1087.3	1088.3	1089.3	1090	1091.8
293.15 K	–	1074.6	1080	1082.6	1083.8	1084.9	–	1086.6	1088.4
298.15 K	1059.7	1071.1	1076.5	1079.1	1080.4	1081.4	1082.4	1083.1	1084.9
303.15 K	1056.3	1067.6	1073	1075.6	1076.9	1078	1079	1079.7	1081.5
308.15 K	1053	1064.1	1069.5	1072.1	1073.4	1074.5	1075.5	1076.2	1078
313.15 K	1049.5	1060.5	1065.9	1068.6	1069.9	1071	–	1072.7	1074.6
318.15 K	1046.1	1056.9	–	1065	1066.3	1067.5	1068.5	1069.3	1071.1

O + CC(N)C(=O)[O-].CCCC[n+]1ccn(C)c1C
x2 = 0
Details	mass density [kg/m3]
288.15 K	998
303.15 K	994.5
308.15 K	992.9
